The RNAGym collection of RNA variant scans (doi:10.7554/elife.90254)
Read counts are not given, so values of variants with three or more changes are uncertain.

B1: OR4K15 (parent)
chain: GUUAACGGUCAUAGGCCAUGGAAACUAGGAGCACCAUUUCGCUGCCAGUGAAGAAAUGAACAAAGAAAAUCUGGGCCAGGCAGGCAUCAAAAGAAAUAGUCUUGCGCUCAACCAGAAAGUCUGUAAUCAUUUUAAGGGUA

Variants of: B1
Test: self-cleavage, relative activity (ratio to wild type); higher = more cleavage; in vitro, sequencing; the parent is a self-cleaving ribozyme
With A22G U38A A92G U102C A117G the self-cleavage was 2.94. Work on A22G U43C A96G A114G yielded a self-cleavage of 0.5. In the case of U19C A62U A68G A69G, the self-cleavage is reported as 0.91. A22G A51G A60G U72A C121A A134G gave a self-cleavage of 0.35. For U19C A64G U122C, the self-cleavage was 1.63. U19C A56G A98C U120C showed a self-cleavage of 0.41. Variant A22G C32U A64G A96G A114U has a self-cleavage of 0.11. U19C A78G A98G U130C showed a self-cleavage of 0.04. U19C A69G A118G showed a self-cleavage of 1.07. Variant A22G U37C U43A has a self-cleavage of 1.54. With U19C U43A A51U the self-cleavage was 1.11. Variant A22G U26C A62G A78C A135U has a self-cleavage of 0.19. For G20A U72C A86U U127A, the self-cleavage was 0.34. With A22G U38A A68G the self-cleavage was 1.11. In the case of A22G U49A U97C A110G, the self-cleavage is reported as 0.14. Work on U19C U39A A51G yielded a self-cleavage of 1.25. In the case of A22G A59G A68G U72C U102C A126U, the self-cleavage is reported as 0.48. U19C A86G U102C showed a self-cleavage of 1.7. Variant G20U A78C A92G A125G U127C has a self-cleavage of 0. Work on A22G A90G A91G G119A U127C yielded a self-cleavage of 0.79. A22G C61U C85A A89U U122C gave a self-cleavage of 1.03. U19C U26C G48A A52G showed a self-cleavage of 1.13. With A22G A30G C35U A98G A140G the self-cleavage was 1.38. For A22G A90G U97C A111C U122C A129G, the self-cleavage was 0. For A22C A52G A116G, the self-cleavage was 1.21. For U19C U49C U122C, the self-cleavage was 0.33. Variant A22G U39A U49C U103C has a self-cleavage of 0.95. For G20U A23G A59G A111G A126G, the self-cleavage was 0.01. U19C U57C A111G gave a self-cleavage of 0.03. Work on A22G A63G A116G yielded a self-cleavage of 0.16. A22G A27G U43A A59G A90G A118G gave a self-cleavage of 0.15. In the case of A22G A68G A82G A94U A140U, the self-cleavage is reported as 0.96. U19C U72C G106C U108C showed a self-cleavage of 0.01. With A22G C76A U103C U130C the self-cleavage was 0.06. Work on U19C U38C A96C yielded a self-cleavage of 0.21. For A22G A36G U103G, the self-cleavage was 0.05. G20U U49A A86U A118U gave a self-cleavage of 0.51. In the case of A22G A55G A56G U57C A96G U122C, the self-cleavage is reported as 0.7. Variant A22G A96G A110G has a self-cleavage of 0.28. A22G G28A A86G A118G U122G gave a self-cleavage of 1.63. With A22G A56G A59G U70C A111G the self-cleavage was 0.03. A22G A63U A89U A129G gave a self-cleavage of 0.74. A22G A52G A96G gave a self-cleavage of 0.99. In the case of A22G U37C U39C A116U A118G, the self-cleavage is reported as 0.11. Work on U19C A60U A78G U100C A116G yielded a self-cleavage of 0.17. U19C U39A A126G showed a self-cleavage of 1.4. A22G A51G A62G A67G A94G gave a self-cleavage of 1.03. Variant A22G A23G U43A A82U A110G A129U has a self-cleavage of 0.08. A22G A52U U57C A89U U100C gave a self-cleavage of 1.67. Variant U19G A23G U100C U133C has a self-cleavage of 1.09. With U19C A95U G99A A111U U120A the self-cleavage was 0.01. For U19C A54G U120C, the self-cleavage was 1.16. For A22G A69G A110C, the self-cleavage was 0.4. With U19C A91G A118U A134G the self-cleavage was 0.22. A22G U37C A62U gave a self-cleavage of 1.78. U19G U57A A59U A96G showed a self-cleavage of 1.15. With A22G G58U U72C A110C A118G the self-cleavage was 0. Work on A22G A66G U108C yielded a self-cleavage of 0.02. In the case of A22G U37C A92G G106U, the self-cleavage is reported as 0.03. For A22G A82G A111G, the self-cleavage was 0.02. For A22C U26A G31A A60G A111G, the self-cleavage was 0.01. A22G A27C U37C showed a self-cleavage of 1.16. A22G U38C U43A A55G U130C gave a self-cleavage of 0.66. In the case of A22G A91G U100C U102C, the self-cleavage is reported as 0.49. Work on A22G U43A A116G U120C A135U yielded a self-cleavage of 0.46. In the case of A22G A30G A55G U72C, the self-cleavage is reported as 0.43. Variant U19C A64U A66G A82U A94G A98G A140C has a self-cleavage of 0.08. With A22G U43C U49C G50U U87C A91G the self-cleavage was 0.66. In the case of U19C U38C U131C, the self-cleavage is reported as 0.63. Work on A22G A52G A117G yielded a self-cleavage of 0.51. In the case of A22G A24C A30G U70C A135U, the self-cleavage is reported as 0.88. Variant A22G U39C U72A U100C has a self-cleavage of 0.78. Work on A22G U39A C105G yielded a self-cleavage of 0.04. A22G A23G A30G U72A A111G gave a self-cleavage of 0.1. In the case of U19C A54G A94C U102C, the self-cleavage is reported as 2.88. In the case of A22G A64G A67G C112U A125G, the self-cleavage is reported as 0. U19C A62G A67U showed a self-cleavage of 1.13. A22G A52G A60G A92G gave a self-cleavage of 0.72. Work on A22G A62U A91G yielded a self-cleavage of 0.27. A22G U38C U39C gave a self-cleavage of 0.13. U19C A66G A126G U132A gave a self-cleavage of 1.47. With U19C A62G U132C the self-cleavage was 1.05. With A22C C40U A63G A69G A89C the self-cleavage was 1.04. With U19C U37C A51G U127C G137C the self-cleavage was 0.56.
